# Experimental data as given in the supplement of paper PMC8728848.
# Some of the results follow.
# B1: SP16664B-bot-474-25-474 (Bacteroides ovatus) (protein)
# chain: CEEDIEIGNKIDESSYLASTQLSGLLLDENTNKNSSVIELRNNEYSTNVVFRLSKLPQKGVDVQIAVEESYAAIYNTIHETDFEVFPAANVKIANNGTFVLAPDDKVTPSVKVTLTAFDGMEEDKTYIVPLTVTSSTEGVTFTETSKHMVLLVQDYRNKPNTNKGEDAVQTVLYFEVNDTNPLNALEFLTESGKYFFDHIVLFAANINWDPEKQRVYLANNENVQFLLDNNDKYLQPLRKAGMKIIISILGNHDEAGVAQLSDMGAREFARELAAYCRAYNLDGVAFDDEYSNSPDLSNPWLASPSAYAGSRLMYECKAVMPEKIVSLYNLGNMYSSSLQVIDGIEPGQYCDYAVADYGGAAGPGTGMTLKQCAGMSIELRRGSGNSSESTARSRKEAGYGYYMFFALDPSLYGSQVYRCQSVCKGLYDETLVYPSYYYKKNSTEREAIN
# Legend:
# Experiment in all cases: glycan array binding signal (z-score within array); higher = stronger binding
# Conditions in all cases: glycan notation: IUPAC condensed, linker removed
# [1] = target: Neu5Ac(a2-6)GlcNAc(b1-4)GlcNAc(b1-4)GlcNAc
# How it was run: (§1)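 Columns mapping to the same glycan were averaged after glycan names were converted to IUPAC-condensed notation. The data come from 3228 arrays in the Consortium for Functional Glycomics database, limited to those with an available protein sequence. Binding is reported as a within-array Z-score averaged across arrays of one protein sequence and across linkers.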
# Neu5Ac(a2-8)Neu5Ac = target: Neu5Ac(a2-8)Neu5Ac
# How it was run: as §1
# [2] = target: Neu5Ac(a2-8)Neu5Ac(a2-3)Gal(b1-3)GalNAc(b1-4)[Neu5Ac(a2-3)]Gal(b1-4)Glc
# How it was run: as §1
# [3] = target: Neu5Ac(a2-8)Neu5Ac(a2-3)Gal(b1-3)GalNAc(b1-4)[Neu5Ac(a2-8)Neu5Ac(a2-3)]Gal(b1-4)Glc
# How it was run: as §1
# [4] = target: Neu5Ac(a2-8)Neu5Ac(a2-3)Gal(b1-4)Glc
# How it was run: as §1
# [5] = target: Neu5Ac(a2-8)Neu5Ac(a2-3)Gal(b1-4)GlcNAc
# How it was run: as §1
# [6] = target: Neu5Ac(a2-8)Neu5Ac(a2-3)[Gal(b1-3)GalNAc(b1-4)]Gal(b1-4)Glc
# How it was run: as §1
# [7] = target: Neu5Ac(a2-8)Neu5Ac(a2-3)[GalNAc(b1-4)]Gal(b1-4)Glc
# How it was run: as §1
# [8] = target: Neu5Ac(a2-8)Neu5Ac(a2-8)Neu5Ac
# How it was run: as §1
# [9] = target: Neu5Ac(a2-8)Neu5Ac(a2-8)Neu5Ac(a2-3)Gal(b1-4)Glc
# How it was run: as §1
# [10] = target: Neu5Ac(a2-8)Neu5Ac(a2-8)Neu5Ac(a2-3)[Gal(b1-3)GalNAc(b1-4)]Gal(b1-4)Glc
# How it was run: as §1
# [11] = target: Neu5Ac(a2-8)Neu5Ac(a2-8)Neu5Ac(a2-3)[GalNAc(b1-4)]Gal(b1-4)Glc
# How it was run: as §1
# [12] = target: Neu5Ac(a2-8)Neu5Ac(a2-8)Neu5Ac(a2-8)Neu5Ac(a2-3)[GalNAc(b1-4)]Gal(b1-4)Glc
# How it was run: as §1
# [13] = target: Neu5Ac(a2-8)Neu5Gc(a2-3)Gal(b1-4)GlcNAc
# How it was run: as §1
# [14] = target: Neu5Ac(b2-6)Gal(b1-4)GlcNAc
# How it was run: as §1
# Neu5Ac(b2-6)GalNAc = target: Neu5Ac(b2-6)GalNAc
# How it was run: as §1
# [15] = target: Neu5Ac9Ac(a2-3)Gal(b1-3)GlcNAc
# How it was run: as §1
# [16] = target: Neu5Ac9Ac(a2-3)Gal(b1-4)GlcNAc
# How it was run: as §1
# [17] = target: Neu5Ac9Ac(a2-6)Gal(b1-4)GlcNAc
# How it was run: as §1
# [18] = target: Neu5Gc(a2-3)Gal(b1-3)GlcNAc
# How it was run: as §1
# [19] = target: Neu5Gc(a2-3)Gal(b1-3)[Fuc(a1-4)]GlcNAc
# How it was run: as §1
# Neu5Gc(a2-3)Gal(b1-4)Glc = target: Neu5Gc(a2-3)Gal(b1-4)Glc
# How it was run: as §1
# [20] = target: Neu5Gc(a2-3)Gal(b1-4)GlcNAc
# How it was run: as §1
# [21] = target: Neu5Gc(a2-3)Gal(b1-4)GlcNAc(b1-3)Gal(b1-4)GlcNAc(b1-2)Man(a1-3)[Neu5Gc(a2-3)Gal(b1-4)GlcNAc(b1-3)Gal(b1-4)GlcNAc(b1-2)Man(a1-6)]Man(b1-4)GlcNAc(b1-4)GlcNAc
# How it was run: as §1
# [22] = target: Neu5Gc(a2-3)Gal(b1-4)[Fuc(a1-3)]GlcNAc
# How it was run: as §1
# [23] = target: Neu5Gc(a2-6)Gal(b1-4)GlcNAc
# How it was run: as §1
# Neu5Gc(a2-6)GalNAc = target: Neu5Gc(a2-6)GalNAc
# How it was run: as §1
# [24] = target: Neu5Gc(a2-8)Neu5Ac(a2-3)Gal(b1-4)GlcNAc
# How it was run: as §1
# [25] = target: Neu5Gc(a2-8)Neu5Gc(a2-3)Gal(b1-4)GlcNAc
# How it was run: as §1
# [26] = target: Neu5Gc(a2-8)Neu5Gc(a2-3)Gal(b1-4)GlcNAc(b1-3)Gal(b1-4)GlcNAc
# How it was run: as §1
# [27] = target: Neu5Gc(a2-8)Neu5Gc(a2-6)Gal(b1-4)GlcNAc
# How it was run: as §1
# [28] = target: Neu5Gc(b2-6)Gal(b1-4)GlcNAc
# How it was run: as §1
binder,measurement,setting,value
B1,glycan array binding signal (z-score),[1],-0.455
same,glycan array binding signal (z-score),Neu5Ac(a2-8)Neu5Ac,-0.398
same,glycan array binding signal (z-score),[2],-0.141
same,glycan array binding signal (z-score),[3],-0.192
same,glycan array binding signal (z-score),[4],-0.568
same,glycan array binding signal (z-score),[5],-0.41
same,glycan array binding signal (z-score),[6],0.151
same,glycan array binding signal (z-score),[7],0.169
same,glycan array binding signal (z-score),[8],-0.23
same,glycan array binding signal (z-score),[9],0.181
same,glycan array binding signal (z-score),[10],0.289
same,glycan array binding signal (z-score),[11],-0.237
same,glycan array binding signal (z-score),[12],1.28
same,glycan array binding signal (z-score),[13],-0.091
same,glycan array binding signal (z-score),[14],-0.369
same,glycan array binding signal (z-score),Neu5Ac(b2-6)GalNAc,-0.544
same,glycan array binding signal (z-score),[15],0.179
same,glycan array binding signal (z-score),[16],-0.181
same,glycan array binding signal (z-score),[17],-0.485
same,glycan array binding signal (z-score),[18],-0.321
same,glycan array binding signal (z-score),[19],-0.071
same,glycan array binding signal (z-score),Neu5Gc(a2-3)Gal(b1-4)Glc,-0.277
same,glycan array binding signal (z-score),[20],0.21
same,glycan array binding signal (z-score),[21],-0.304
same,glycan array binding signal (z-score),[22],-0.255
same,glycan array binding signal (z-score),[23],-0.171
same,glycan array binding signal (z-score),Neu5Gc(a2-6)GalNAc,-0.249
same,glycan array binding signal (z-score),[24],-0.421
same,glycan array binding signal (z-score),[25],-0.6
same,glycan array binding signal (z-score),[26],-0.622
same,glycan array binding signal (z-score),[27],0.231
same,glycan array binding signal (z-score),[28],0.041
